# Laboratory results as given in patent publication US20260250398A1 (ANTLERA THERAPEUTICS, published 2026).
# T1: LRP6 (low-density lipoprotein receptor-related protein 6) (UniProt O75581 20-1370, limits assumed)
# T1 sequence (looked up): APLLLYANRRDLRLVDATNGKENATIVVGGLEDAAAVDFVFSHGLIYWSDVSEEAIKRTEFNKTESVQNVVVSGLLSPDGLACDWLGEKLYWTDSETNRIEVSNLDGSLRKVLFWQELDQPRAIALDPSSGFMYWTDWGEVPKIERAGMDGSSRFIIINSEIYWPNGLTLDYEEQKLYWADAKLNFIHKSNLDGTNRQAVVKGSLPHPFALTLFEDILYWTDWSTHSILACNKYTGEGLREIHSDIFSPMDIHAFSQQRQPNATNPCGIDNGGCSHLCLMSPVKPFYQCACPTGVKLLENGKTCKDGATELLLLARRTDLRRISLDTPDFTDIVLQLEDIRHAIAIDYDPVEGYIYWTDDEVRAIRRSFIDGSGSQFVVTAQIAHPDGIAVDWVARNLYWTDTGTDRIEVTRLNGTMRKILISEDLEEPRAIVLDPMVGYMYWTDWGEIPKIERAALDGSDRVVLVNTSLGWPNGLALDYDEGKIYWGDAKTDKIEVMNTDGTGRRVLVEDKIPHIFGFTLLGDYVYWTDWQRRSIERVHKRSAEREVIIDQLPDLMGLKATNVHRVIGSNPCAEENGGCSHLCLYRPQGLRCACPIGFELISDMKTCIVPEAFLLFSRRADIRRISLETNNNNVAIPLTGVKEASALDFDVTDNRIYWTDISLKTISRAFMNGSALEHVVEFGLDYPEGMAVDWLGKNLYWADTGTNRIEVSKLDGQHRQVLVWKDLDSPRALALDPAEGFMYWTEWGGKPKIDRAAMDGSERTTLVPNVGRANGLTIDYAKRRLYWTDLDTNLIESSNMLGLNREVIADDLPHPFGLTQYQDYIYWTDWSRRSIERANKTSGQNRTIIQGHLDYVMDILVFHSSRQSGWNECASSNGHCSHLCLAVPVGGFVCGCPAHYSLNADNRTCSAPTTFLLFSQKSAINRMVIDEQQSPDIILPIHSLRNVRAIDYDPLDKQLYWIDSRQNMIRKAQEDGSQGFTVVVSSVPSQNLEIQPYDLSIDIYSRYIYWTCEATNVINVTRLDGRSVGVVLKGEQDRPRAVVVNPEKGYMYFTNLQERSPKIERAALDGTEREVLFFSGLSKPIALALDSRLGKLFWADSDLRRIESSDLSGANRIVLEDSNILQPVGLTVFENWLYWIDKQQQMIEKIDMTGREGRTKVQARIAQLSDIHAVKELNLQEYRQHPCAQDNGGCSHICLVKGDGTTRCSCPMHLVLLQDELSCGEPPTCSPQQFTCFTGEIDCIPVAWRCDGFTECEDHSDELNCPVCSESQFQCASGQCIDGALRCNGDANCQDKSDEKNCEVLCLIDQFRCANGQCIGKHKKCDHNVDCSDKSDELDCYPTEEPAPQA
# B1: CM0042 (FZD Diabody-Fc-LRP Diabody; paratopes 5019; 2539) (bispecific antibody)
# chain: MNLLLILTFVAAAVAEFEVQLVESGGGLVQPGGSLRLSCAASGFNIGSSSIHWVRQAPGKGLEWVASIYSAFASTSYADSVKGRFTISADTSKNTAYLQMNSLRAEDTAVYYCARYHFPFGFALDYWGQGTLVTVSSGGGGSDIQMTQSPSSLSASVGDRVTITCRASQSVSSAVAWYQQKPGKAPKLLIYSASSLYSGVPSRFSGSRSGTDFTLTISSLQPEDFATYYCQQGVYLFTFGQGTKVEIKLEDKTHTKV[sequence of human IgG1 Fc with C220S (EU numbers) not given]SGSETPGTSESATPESGGGEVQLVESGGGLVQPGGSLRLSCAASGFNISYSSIHWVRQAPGKGLEWVAYISSYYGYTYYADSVKGRFTISADTSKNTAYLQMNSLRAEDTAVYYCARAHYFPWAGAMDYWGQGTLVTVSSGGGGSDIQMTQSPSSLSASVGDRVTITCRASQSVSSAVAWYQQKPGKAPKLLIYSASSLYSGVPSRFSGSRSGTDFTLTISSLQPEDFATYYCQQYSWGPFTFGQGTKVEIK
# Target: T1, LRP6 (low-density lipoprotein …)
# Experiment: cell-based or functional assay
binder,measurement,value
B1,TOPFLASH % Wnt Maxima,33 % Wnt Maxima
